{"source": "PubChem BioAssay AID463173", "about": "(ICCB-Longwood Screening Facility, Harvard Medical School, 2010)", "note": "About 4,300 (8.3%) of roughly 52,000 compounds were called active. Rule as the data show it: active = survival mostly below about 52% (no sharp cut-off); inactive = mostly above about 56%. The list shows a part of the results.", "data": [{"system": "DeltatarO mutant", "experiment": "growth inhibition of S. aureus wild type versus tarO mutant, primary screen, teichoic acid synthesis inhibitors, RN4220, OD600 (AID 463173)", "conditions": "OD600, 18 h, active compounds read low, screened at 18.75 µg/mL (by protocol)", "values": [{"smiles": "CCOc1ccc(NC(=O)Cn2c(=O)oc3cc(S(=O)(=O)N4CCC(C)CC4)ccc32)cc1", "survival": "inactive: 113%"}, {"smiles": "O=C(NCC1CCN(Cc2ccc(F)cc2)CC1)c1cc2ccc3cccnc3c2[nH]1", "survival": "inactive: 80%"}, {"smiles": "CCOc1ccc(NC(=O)CN2CCN(c3ccc(Cl)cc3)CC2)cc1", "survival": "inactive: 78%"}, {"smiles": "O=C(c1cc(F)cc(F)c1)N1CCC(c2nc(-c3ccc(S(=O)(=O)N4CCCC4)cc3)no2)CC1", "survival": "inactive: 77%"}, {"smiles": "CC1(C)C/C(=N\\O)c2cc3c(nc2C1)CCCC3", "survival": "inactive: 72%"}, {"smiles": "COc1ccc(OC)c(CCNC(=O)c2cc3c(=O)n(C)c4ccccc4c3n2C)c1", "survival": "active: 43%"}, {"smiles": "COC(=O)c1ccc([C@@H]2Nc3c(C)cc(C)cc3[C@@H]3C=CC[C@@H]32)cc1", "survival": "active: 51%"}, {"smiles": "CCc1nn(CC(=O)N2CCN(c3cccc(C)c3C)CC2)c(=O)c2cc3sccc3n12", "survival": "inactive: 134%"}, {"smiles": "Cc1ccc(O)c(-c2n[nH]c3c2C(c2ccccc2F)N(Cc2ccco2)C3=O)c1", "note": "(stereo not given)", "survival": "active: 8%"}, {"smiles": "CCC(=O)N1CCc2cc(S(=O)(=O)NC(CC(C)C)C(=O)NCc3ccc(C)cc3)ccc21", "note": "(stereo not given)", "survival": "inactive: 97%"}, {"smiles": "CCCNC(=O)N1CCC(c2ccc3c(c2)OCO3)CC1", "survival": "inactive: 99%"}, {"smiles": "Cc1sc2ncn(CC(=O)N3CCN(c4ccc(F)cc4)CC3)c(=O)c2c1S(=O)(=O)N1CCN(c2ncccn2)CC1", "survival": "inactive: 57%"}, {"smiles": "Cc1cc2[nH]c(=O)c(=O)[nH]c2cc1S(=O)(=O)Nc1cccc(C(F)(F)F)c1", "survival": "inactive: 73%"}, {"smiles": "COc1cccc(CNC(=O)CCS(=O)(=O)c2ccc3c(c2)CC(C)N3C(=O)C2CC2)c1", "note": "(stereo not given)", "survival": "active: 20%"}, {"smiles": "COc1cc(Cl)c(C)cc1NC(=O)c1cc2c(s1)-c1c(C)cccc1OC2", "survival": "inactive: 90%"}, {"smiles": "O=C(Cn1c(=O)nc(-c2ccccc2)c2cc(Cl)ccc21)NCCc1ccccc1", "survival": "inactive: 88%"}, {"smiles": "Cc1ccc(OC(=O)CSc2nnc(-c3cccs3)o2)c(C)c1", "survival": "inactive: 66%"}, {"smiles": "O=C(c1ccc([N+](=O)[O-])cc1)N1c2ncnn2C2(CCCCC2)[C@@H]2CCCC[C@@H]21", "survival": "inactive: 90%"}, {"smiles": "COc1ccc(Cl)cc1C(=O)NCc1nc(-c2cccc(C)c2)no1", "survival": "inactive: 48%"}, {"smiles": "CC1=C(C(=O)OC2CCCCCC2)C(c2ccc(Cl)cc2)CC(=O)N1", "note": "(stereo not given)", "survival": "inactive: 86%"}, {"smiles": "Cc1cc(C)c(NC(=O)Cc2ccc(-n3c(C)nc4cccnc43)cc2)c(C)c1", "survival": "inactive: 80%"}, {"smiles": "Cn1nnc2cc(NC(=O)NC3CCCCC3)ccc21", "survival": "inactive: 90%"}, {"smiles": "COc1ccc(CNC(=O)CS(=O)(=O)c2cccc3nsnc23)cc1", "survival": "inactive: 123%"}, {"smiles": "COc1ccc(N2CC(C(=O)N/N=C/c3ccccc3)CC2=O)cc1", "note": "(stereo not given)", "survival": "inactive: 108%"}, {"smiles": "COc1cccc2[nH]c(C(=O)NCc3ccc4c(c3)CCN4C(=O)c3ccc(F)cc3)cc12", "survival": "inactive: 84%"}, {"smiles": "CCc1c(C)nc2nc(-c3ccccc3)nn2c1NCc1ccc(C)cc1", "survival": "active: -4%"}, {"smiles": "COc1ccc(CNC(=O)c2ccc(-c3nc(CS(=O)c4ccc(C)cc4)c(C)o3)cc2)cc1", "note": "(stereo not given)", "survival": "inactive: 94%"}, {"smiles": "CC(C)OCCCn1c(=O)c2ccccc2n2c(-c3ccccc3F)nnc12", "survival": "inactive: 90%"}, {"smiles": "Cc1oc2ccc(O)c(CN3CCCC(C)C3)c2c1C(=O)Nc1ccccc1", "note": "(stereo not given)", "survival": "inactive: 85%"}, {"smiles": "COc1ccc2c(c1)c(=O)c(C(=O)c1ccc(Cl)cc1)cn2CC(=O)Nc1ccc2c(c1)OCCO2", "survival": "inactive: 96%"}, {"smiles": "O=C(CSc1cn(CCNC(=O)c2c(F)cccc2F)c2ccccc12)Nc1ccccc1F", "survival": "inactive: 55%"}, {"smiles": "NC(=O)/C=C/C(=O)Nc1ccc2c(c1)OCO2", "survival": "active: 33%"}, {"smiles": "N=c1oc2ccccc2cc1C(=O)Nc1ccccc1", "survival": "inactive: 91%"}, {"smiles": "Cc1ccc2nc(-c3ccco3)c(Nc3ccc4c(c3)OCCO4)n2c1", "survival": "inactive: 67%"}, {"smiles": "CC(=O)Nc1ccc(NC(=O)C2Cc3ccccc3N2C(=O)c2ccccc2)cc1", "note": "(stereo not given)", "survival": "inactive: 77%"}, {"smiles": "COc1ccc(Cn2c(CCC(=O)Nc3ccccc3OC)nc3cccnc32)cc1", "survival": "inactive: 131%"}, {"smiles": "COc1ccccc1CNC(=O)c1ccc(CSc2nc3ccncc3n2Cc2cccc(F)c2)cc1", "survival": "inactive: 72%"}, {"smiles": "Cc1ccc(OCC(=O)Nc2nc(-c3ccc(Br)cc3)ns2)cc1", "survival": "inactive: 72%"}, {"smiles": "CCCn1ccc2c(OCC(=O)Nc3ccc(OC)c(OC)c3)cccc2c1=O", "survival": "inactive: 95%"}, {"smiles": "CCCn1c(SCC(=O)c2ccc3c(c2)OCCO3)nnc1-c1ccco1", "survival": "inactive: 88%"}, {"smiles": "O=C(CC(c1cccs1)N1Cc2ccccc2C1=O)Nc1cccc(F)c1", "note": "(stereo not given)", "survival": "inactive: 95%"}, {"smiles": "Cc1ccc2nc(-c3c[nH]c4ccccc34)c(Nc3ccc(F)cc3)n2c1", "survival": "inactive: 67%"}, {"smiles": "Cc1ccc(CNC(=O)C(C)n2c(=O)cc(-c3ccccc3)c3c(C)nn(C)c32)cc1", "note": "(stereo not given)", "survival": "inactive: 80%"}, {"smiles": "O=C(CCS(=O)(=O)c1cccc2nonc12)Nc1ccc(F)cc1F", "survival": "inactive: 124%"}, {"smiles": "Cc1ccc(-c2nnn3c2nc(NCc2ccc4c(c2)OCO4)c2ccccc23)cc1", "survival": "inactive: 81%"}, {"smiles": "COc1ccccc1N1CCN(C(=O)c2ccc3c(c2)CCN3S(=O)(=O)c2ccccc2)CC1", "survival": "inactive: 62%"}, {"smiles": "Cc1oc(-c2ccccc2Cl)nc1CSc1nncn2c1cc1occc12", "survival": "inactive: 60%"}, {"smiles": "COc1ccc(Br)cc1CNC(=O)Cn1ncn2nc(-c3cccs3)cc2c1=O", "survival": "inactive: 63%"}, {"smiles": "CC(=O)Nc1ccc(C(=O)N2CCc3ccccc3C2)cc1", "survival": "inactive: 99%"}, {"smiles": "CC1CCN(C(=O)c2ccc(Br)cc2)CC1", "survival": "inactive: 110%"}, {"smiles": "O=C(CSc1nc(=O)[nH]c2c1CCC2)NCc1ccc(F)cc1", "survival": "inactive: 74%"}, {"smiles": "COc1ccc(Cl)cc1S(=O)(=O)N1CCN(C(=O)c2cc(-c3ccc(Br)cc3)n[nH]2)CC1", "survival": "active: 47%"}, {"smiles": "Cc1ccc(-n2ncc3c(N4CCN(Cc5ccccc5)CC4)ncnc32)cc1", "survival": "inactive: 126%"}, {"smiles": "Cc1cccc(C(=O)Nc2ccc(S(=O)(=O)N3CCCCC3c3cccnc3)cc2)c1", "note": "(stereo not given)", "survival": "inactive: 87%"}, {"smiles": "CCOc1ccccc1CNc1nc2nc(C)c(CC(=O)OC)c(=O)n2[nH]1", "survival": "inactive: 84%"}, {"smiles": "CC(=O)N1NC(=Nc2ccccc2)SC1(C)C", "survival": "inactive: 64%"}, {"smiles": "Cc1cc2oc(C(=O)Nc3c(C)n(C)n(-c4ccccc4)c3=O)cc(=O)c2cc1C", "survival": "inactive: 78%"}, {"smiles": "COc1ccc(-c2cc(C(=O)Nc3c(C)n(C)n(-c4ccccc4)c3=O)no2)cc1", "survival": "active: 46%"}, {"smiles": "COC(=O)C(CCSC)NC(=O)c1cc2c(n(-c3ccccc3)c1=O)CC(C)(C)CC2=O", "note": "(stereo not given)", "survival": "inactive: 77%"}, {"smiles": "CN1C(=O)c2ccccc2Sc2ccc(NC(=O)c3ccc(C#N)cc3)cc21", "survival": "inactive: 88%"}, {"smiles": "O=C(NCCCc1nc2ccccc2n1Cc1ccccc1F)c1ccco1", "survival": "inactive: 63%"}, {"smiles": "CCOC(=O)Cn1c(=O)n(-c2ccc(Cl)cc2)c2nc(-c3ccc(Cl)cc3)nc(C(N)=O)c21", "survival": "inactive: 62%"}, {"smiles": "Cc1nn(C(C)(C)C)c(OC(=O)c2c(F)cccc2F)c1Sc1ccccc1", "survival": "inactive: 127%"}, {"smiles": "COc1ccc(NC(=O)CN(c2ccc(C)cc2)S(=O)(=O)c2cccs2)cc1", "survival": "inactive: 87%"}, {"smiles": "COc1cc(CNc2ccc3[nH]c(=O)[nH]c3c2)cc(Cl)c1OCc1ccc(F)cc1", "survival": "inactive: 76%"}, {"smiles": "O=c1[nH]c2ccc(S(=O)(=O)Nc3ccccc3)cc2o1", "survival": "inactive: 77%"}, {"smiles": "O=C(CCCn1c(=O)c2ccccc2n(Cc2cccc(F)c2)c1=O)NCc1ccccc1Cl", "survival": "inactive: 74%"}, {"smiles": "O=C(Nc1ccc(S(=O)(=O)N(Cc2ccccc2)c2ccccc2)cc1)c1ccc(F)cc1", "survival": "inactive: 70%"}, {"smiles": "O=C(CCc1ccccc1)N1CCc2c([nH]c3ccccc23)C1c1ccc(F)cc1", "note": "(stereo not given)", "survival": "inactive: 82%"}, {"smiles": "CCCCNC(=O)c1sc2ncccc2c1-n1cccc1", "survival": "inactive: 55%"}, {"smiles": "Nc1c(S(=O)(=O)Cc2ccccc2)sc2nc3c(cc12)CCCC3", "survival": "inactive: 49%"}, {"smiles": "CCOc1ccc(Nc2c3c(nc4nncn24)CCC3)cc1", "survival": "inactive: 64%"}, {"smiles": "O=C(NCCc1ccccc1)c1cc(-c2ccc(Cl)c(Cl)c2)on1", "survival": "inactive: 57%"}, {"smiles": "Cc1c(CC(=O)NCc2ccccc2Cl)c(=O)oc2cc(O)ccc12", "survival": "active: 44%"}, {"smiles": "O=C(O)C1C2C=CC3(CN(Cc4cccc(Cl)c4Cl)C(=O)C13)O2", "note": "(stereo not given)", "survival": "inactive: 101%"}, {"smiles": "COc1ccc(C(=O)OCc2cc(=O)n3nc(C4CC4)sc3n2)cc1OC", "survival": "inactive: 91%"}, {"smiles": "Cc1ccc2c(=O)cc(C(=O)Nc3nc4ccc(Cl)cc4s3)oc2c1", "survival": "active: 25%"}, {"smiles": "Cc1cccc(C(=O)Nc2ccccc2OCc2cc(=O)n3c(C)csc3n2)c1", "survival": "inactive: 104%"}, {"smiles": "O=C(Nc1ccc(C(=O)OCc2cc(=O)n3c4c(sc3n2)CCCC4)cc1)c1cccc(F)c1", "survival": "inactive: 91%"}, {"smiles": "COc1ccc(CCNc2nc3c(c(=O)n(C)c(=O)n3C)n2Cc2ccccc2Cl)cc1OC", "survival": "inactive: 75%"}, {"smiles": "Cc1csc2nc(-c3cccc(NC(=O)c4c(F)cccc4F)c3)cn12", "survival": "inactive: 128%"}, {"smiles": "O=C(Cn1cc(S(=O)(=O)Cc2ccccc2F)c2ccccc21)NCc1ccccc1", "survival": "inactive: 87%"}, {"smiles": "COc1ccc(CCNC(=O)CCn2c(=O)c3ccccc3n(Cc3ccccc3C)c2=O)cc1OC", "survival": "inactive: 86%"}, {"smiles": "CCC1CCCCN1C(=O)CSc1nnc(-c2cccnc2)n1-c1ccc(OC)cc1", "note": "(stereo not given)", "survival": "inactive: 105%"}, {"smiles": "CN(C)c1ccc(/C=N/c2nc3ccccc3o2)cc1", "survival": "inactive: 85%"}, {"smiles": "CN(C)S(=O)(=O)c1ccc(S(=O)(=O)N(Cc2ccccc2F)C2CC2)cc1", "survival": "inactive: 91%"}, {"smiles": "CCOc1ccc(-c2nnc(SCC(=O)Nc3cccc(Cl)c3C)o2)cc1", "survival": "inactive: 57%"}, {"smiles": "CC(C)Oc1ccc(CNS(=O)(=O)c2ccc(-c3cc(C(F)(F)F)on3)s2)cc1", "survival": "inactive: 77%"}, {"smiles": "Cc1ccc(NC(=O)CCn2cnc3onc(-c4ccc(F)cc4)c3c2=O)c(Br)c1", "survival": "inactive: 102%"}, {"smiles": "Cc1ccc2oc(C(=O)Nc3ccc(S(=O)(=O)Nc4nc(C)cc(C)n4)cc3)cc(=O)c2c1", "survival": "inactive: 99%"}]}]}
